Laboratory results from the supplement of paper PMC11417369.
± gives the standard deviation of the averaged measurements. The list shows a part of the results.

test system: PfAP2-EXP AP2 domain (GST-tagged); assay: gcPBM binding intensity (ln(normalized median fluorescence intensity)); higher = stronger DNA binding
Procedure, shortened: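 For binding intensity, the highest Masliner-normalised natural-log median intensity across replicate spots of either probe orientation was taken. Protein bound to the array was stained with Alexa488 anti-GST antibody and scanned at 488 nm. The protein, GST-tagged P. falciparum DNA-binding domains from E. coli at about 25 μg on average, had been applied for 1 h to an Agilent 4 × 180k array of primer-extended double-stranded 36-bp intergenic genomic probes and negative controls.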

Sequence | gcPBM binding intensity (ln)
AATATATTTTAATATACACACATATCTGCTCTTTAA [CACACA_site6130] | 8.27 ± 0.38
TCATTGTTAAGCTGAAGTACTTATAATTACATCGAG [XGTACX_site6340] | 8.63 ± 0.27
TAAAATTATATAAAGGAACACACATTTTATTTTATT [CACACA_site8423] | 8.51 ± 0.23
TGTCAATCATATAAATGTACATTTTAAATGAGGTGT [XGTACX_site7391] | 8.81 ± 0.4
TATTAGCATGTTATTACACACAATATAAAATATATA [CACACA_site1401] | 8.37 ± 0.33
AAATTATGAACATATTGTACATATATATATATATAT [XGTACX_site8269] | 10.1 ± 0.45
AATTAAATTACTTATACACACATAAAATGTCTGTAT [CACACA_site997] | 8.29 ± 0.46
CATGTATGTACCATGGTGCAACAATATTTTTAACAA [GTGCAC_site9597] | 8.88 ± 0.31
ATTATATAAATTATATGTACGTATTTTTTTTTTTTT [XGTACX_site1908] | 8.5 ± 0.37
TTTATTTCTATATTTACATGCAAAGGGTTAGTTATA [TGCATGCA_site983] | 8.68 ± 0.3
AAGAAAAAGAATAGACGGACAACTAATATAAAATAT [XGTACX_site7905] | 9.04 ± 0.29
GATCTTTTTTTTCTTACTTTACAATTTTTTTTTTAC [XGTACX_negctrl_site101] | 8.83 ± 0.55
TTTTTTTTTTTCATGTGTACATATATTTTCACTTTA [XGTACX_site4475] | 8.79 ± 0.4
GTTTTACACAGACATGCATGTGAAAATTTGATGGTA [TGCATGCA_site308] | 9.23 ± 0.29
TATCATCATGTATGTACACACATACCTATATTATGT [CACACA_site6768] | 8.77 ± 0.25
TGTATAAAACATGGGTGTACTGAACTCAATCATATA [XGTACX_site1215] | 8.6 ± 0.29
AAAATAACAAAATAAAGTACTTTTAAAAGATATAAT [XGTACX_site7632] | 8.85 ± 0.35
AAAAGTAACAAAGCTACACACATTTAAATAAACATA [CACACA_site1421] | 8.48 ± 0.35
TTTTTAATTCAAACAATAATATGTTATATTTCAAAT [TGCATGCA_negctrl_site27] | 8.04 ± 0.45

Sequence | gcPBM binding intensity (ln)
GATTTTCTAATTTCTACACACATATAAGAATATTCA [CACACA_site7340] | 8.52 ± 0.4
TATACTCATTTTTATACACACTTGTTTTATAAAACG [CACACA_site4561] | 8.67 ± 0.47
ATATATATATATATATGTACATATGTATGTGTTTGT [XGTACX_site397] | 9.93 ± 0.42
CTATATGTATAAAGTTGTACAGTTTTTCAAAGTTAA [XGTACX_site6652] | 8.36 ± 0.35
AAATTTATTATGAACATACACACAAAAAAAAAAAGT [CACACA_site2053] | 8.82 ± 0.47
TACATCATCTATAAGGTGCATTTTAGTTCTATTAAA | 8.77 ± 0.44
TATATATTTTATTATTGTACGAATTATTTATTTTAC [XGTACX_site8105] | 8.46 ± 0.36
TTTTTTCTAATATCTTTGCCTTTTTCTTTATTTATT [CACACA_negctrl_site1053] | 8.71 ± 0.5
TATAAAAAGCATAACACACACATGTCAATATAAATA [CACACA_site6648] | 8.7 ± 0.45
TATTGAAACCCACACGAACACACGTATTTCATAAAC [CACACA_site251] | 8.62 ± 0.45
ATGGACATTTTATAAATCACAATGGATATTTTATAA [CACACA_negctrl_site1830] | 8.37 ± 0.61
TTTTTTTTTTTTTTGTGTACATATAATGCACATTAT [XGTACX_site6505] | 8.52 ± 0.4
TACTTTTATATAGAAAGTACATACAATTCATAGAAT [XGTACX_site2182] | 8.42 ± 0.38
CATAAATACATACATACACACATATTTATATTTATA [CACACA_site7071] | 8.47 ± 0.39
ATATACATATATATATGTACTGAAAAGAAAAGAATT [XGTACX_site150] | 8.78 ± 0.38
ATAATTATATATATATGTACATATTATATATATATA [XGTACX_site4526] | 9.53 ± 0.28
TGTTTTTAAATTTAAATCAAAAAATAAAATAAAATA [GTGCAC_negctrl_site355] | 8.34 ± 0.48
AAGATAACAAGTAATCAATCTAATTATTAATTATAT [CACACA_negctrl_site1713] | 8.06 ± 0.44
AAAAATATGTGATAATGTACTTTTCATTTTTATTTT [XGTACX_site8544] | 8.36 ± 0.39

Sequence | gcPBM binding intensity (ln)
AAAAGAAAAATGTCATATGATATCATATATTTTATA [GTGCAC_negctrl_site185] | 8.2 ± 0.38
AATATAATATAATGCACACATAAACAAAAAAAAAAT [CACACA_site1304] | 8.9 ± 0.45
TTCATTTGAAAACTGTGTACTTAAAAATATACATAT [XGTACX_site176] | 8.24 ± 0.21
ATATATTTAAATAAATGTACAAATCATAAATTCAAG [XGTACX_site1417] | 8.51 ± 0.33
ATACATATACACATATGTACATATGAAAAGAAAAAT [XGTACX_site6445] | 8.94 ± 0.45
TTATTAGAAAAATGCACACCAAAAAAAAAAAAAAAA [CACACA_site2522] | 8 ± 0.33
TTTTTATTTTATAATATATTCCTTTTCCTTTCTTTC [CACACA_negctrl_site245] | 8.41 ± 0.35
TACATATATATAAATACACACACACCCACCTTATAA [CACACA_site9346] | 8.95 ± 0.52
TATATATATTGTGTATGTACATATATATAAATATTG [XGTACX_site433] | 8.51 ± 0.057
TACAAAAAGAATGAAAAATATATAATAAAAATAAAA [XGTACX_negctrl_site159] | 8.49 ± 0.47
AAGACAACATAAATATGTACATATATTTATTATTTT [XGTACX_site1792] | 8.55 ± 0.22
CACATACCTATATACACACACAAAATAATAAAATAA [CACACA_site7150] | 8.68 ± 0.5
TATATATATATATTGACACACATGTATTTCAATATT [CACACA_site2832] | 9.93 ± 0.47
ACTAATATTTTATAAAGTACAAATTAATAAAATTCA [XGTACX_site5817] | 8.15 ± 0.25
AGAATGGATTAGCTAGCACACACAAAAAAAAAAAAA [CACACA_site8995] | 8.48 ± 0.54
AAGTATGGAAAGGAATATAAATTAATACTTTCATTG [XGTACX_negctrl_site131] | 8.34 ± 0.46
CTTATATATTGCCCTTCACACACACCCATATATATA [CACACA_site8795] | 9.33 ± 0.37
TTTTGTAGATATGACTGTACATATTTTATACATAAC [XGTACX_site971] | 8.47 ± 0.32
